Measured values from a collection of fitness landscapes (doi:10.1016/j.celrep.2020.107928).
Whole data set: some 81,000 sequences, median “one-hybrid fitness for binding NBS DNA” near -0.1, cut for the highest 2% near 0.36. The list shows a part of the results.

B1: Caulobacter ParB omega fusion; a variant is named by its letters at X, in order, B8GW30 (parent)
chain: MESVVVGEPGMSEGRRGLGRGLSALLGEVDAAPAQAPGEQLGGSREAPIEILQRNPDQPRRTFREEDLEDLSNSIREKGVLQPILVRPSPDTAGEYQIVAGERAWRAAQRAGLKTVPIMVRELDDLAVLEIGIIENVQRADLNVLEEALSYKVLMEKFERTQENIAQTIGKSXSHVANXMRLLXLPDEVQSYLVSGELTAXHARAIAAAADPVALAKQIIEGGLSVRETEALARKAPNLSAGKSKGGRPPRVKDTDTQALESDLSSVLGLDVSIDHRGSTGTLTITYATLEQLDDLCNRLTRGI

Variants of: B1
Assay: one-hybrid fitness for binding NBS DNA (the Noc-binding site; scaled: cognate 1, non-cognate 0); higher = stronger binding
Conditions: with NBS DNA site
Outline: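 Bacterial one-hybrid selection in E. coli USO rpoZ- hisB- pyrF- with a HIS3 reporter carrying the site 19 bp from the promoter, screening Caulobacter ParB libraries with four specificity codons randomised (NNS). Cells grew 48 hours at 37°C on M9-minus-histidine plus 0.1 mM IPTG and 5 mM 3-AT. Plasmids before and after selection were Illumina-sequenced, three replicate libraries pooled, and variants under 10 reads dropped. Fitness is the log change in variant-to-wild-type read ratio, rescaled to cognate 1, non-cognate 0.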

| Variant | one-hybrid fitness for binding NBS DNA |
| --- | --- |
| TADM | ≤ 0.2 |
| PDFG | ≤ 0.2 |
| VSSG | ≤ 0.2 |
| WIKE | ≤ 0.2 |
| PCWT | ≤ 0.2 |
| HEKT | ≤ 0.2 |
| NLFS | ≤ 0.2 |
| PFFD | ≤ 0.2 |
| LTRN | ≤ 0.2 |
| RVMF | ≤ 0.2 |
| DKLV | ≤ 0.2 |
| PWTS | ≤ 0.2 |
| HRWG | ≤ 0.2 |
| RPCV | ≤ 0.2 |
| EFST | ≤ 0.2 |
| DPVE | ≤ 0.2 |
| AADM | ≤ 0.2 |
| CCHR | ≤ 0.2 |
| TCNT | ≤ 0.2 |
| QQKW | 0.382 |
| ELKC | ≤ 0.2 |
| AEHL | ≤ 0.2 |
| LLNE | ≤ 0.2 |
| PPPN | ≤ 0.2 |

| Variant | one-hybrid fitness for binding NBS DNA |
| --- | --- |
| APNC | ≤ 0.2 |
| DRDL | ≤ 0.2 |
| DLWR | ≤ 0.2 |
| ASQE | ≤ 0.2 |
| TDYN | ≤ 0.2 |
| LDDL | ≤ 0.2 |
| HLMS | ≤ 0.2 |
| MFAV | ≤ 0.2 |
| QLQS | 0.308 |
| KLAS | ≤ 0.2 |
| WNGR | ≤ 0.2 |
| SFTR | ≤ 0.2 |
| CCKT | ≤ 0.2 |
| APKT | ≤ 0.2 |
| QPIV | ≤ 0.2 |
| QRCN | 0.397 |
| WKQG | ≤ 0.2 |
| PHGG | ≤ 0.2 |
| HAQN | ≤ 0.2 |
| YGLF | ≤ 0.2 |
| NRAS | ≤ 0.2 |
| LRVT | ≤ 0.2 |
| QCLI | ≤ 0.2 |
| HRCC | ≤ 0.2 |

| Variant | one-hybrid fitness for binding NBS DNA |
| --- | --- |
| MELI | ≤ 0.2 |
| ILAD | ≤ 0.2 |
| AAGK | ≤ 0.2 |
| PHHC | ≤ 0.2 |
| LRYR | ≤ 0.2 |
| LRAR | 0.204 |
| GMTD | ≤ 0.2 |
| NMKG | ≤ 0.2 |
| LVCC | ≤ 0.2 |
| MYHW | ≤ 0.2 |
| KQMS | ≤ 0.2 |
| PLAG | ≤ 0.2 |
| TFTG | ≤ 0.2 |
| HRRY | ≤ 0.2 |
| GHYL | ≤ 0.2 |
| AHIH | ≤ 0.2 |
| GEQR | ≤ 0.2 |
| QQFY | ≤ 0.2 |
| NTML | ≤ 0.2 |
| EMAA | ≤ 0.2 |
| LPGG | ≤ 0.2 |
| RYEP | ≤ 0.2 |
| SGNL | ≤ 0.2 |
| QRLN | 0.308 |

| Variant | one-hybrid fitness for binding NBS DNA |
| --- | --- |
| NDLL | ≤ 0.2 |
| RWRL | ≤ 0.2 |
| PRGV | ≤ 0.2 |
| KRMS | 0.396 |
| QPDS | ≤ 0.2 |
| NRQC | ≤ 0.2 |
| QASI | ≤ 0.2 |
| RMNK | ≤ 0.2 |
| HRIC | ≤ 0.2 |
| PFPL | ≤ 0.2 |
| TPAG | ≤ 0.2 |
| HHRR | ≤ 0.2 |
| TEMG | ≤ 0.2 |
| DMTS | ≤ 0.2 |
| FGYT | ≤ 0.2 |
| EDNR | ≤ 0.2 |
| WTFN | ≤ 0.2 |
| MQWR | ≤ 0.2 |
| PRSV | ≤ 0.2 |
| QMSM | ≤ 0.2 |
| EVTT | ≤ 0.2 |
| FTGR | ≤ 0.2 |
| PRWL | ≤ 0.2 |
| QYVQ | 0.313 |

| Variant | one-hybrid fitness for binding NBS DNA |
| --- | --- |
| TNPV | ≤ 0.2 |
| DCRS | ≤ 0.2 |
| MKCT | ≤ 0.2 |
| IRNR | 0.422 |
| RYWS | ≤ 0.2 |
| FIMR | ≤ 0.2 |
| DQNG | ≤ 0.2 |
| ESVT | ≤ 0.2 |
| FTWG | ≤ 0.2 |
| QVFR | 0.302 |
| YGDR | ≤ 0.2 |
| MHFY | ≤ 0.2 |
| LLVG | ≤ 0.2 |
| APPA | ≤ 0.2 |
| KHVE | ≤ 0.2 |
| RHLL | ≤ 0.2 |
| TQPE | ≤ 0.2 |
| VTSS | ≤ 0.2 |
| EGKI | ≤ 0.2 |
| RHAG | ≤ 0.2 |
| SIEG | ≤ 0.2 |
| PFRI | ≤ 0.2 |
| GMIS | ≤ 0.2 |
| GDLR | ≤ 0.2 |

| Variant | one-hybrid fitness for binding NBS DNA |
| --- | --- |
| PAFP | ≤ 0.2 |
| CDSL | ≤ 0.2 |
| LGAR | ≤ 0.2 |
| LSRL | ≤ 0.2 |
| QTNQ | 0.377 |
| GISC | ≤ 0.2 |
| DIAY | ≤ 0.2 |
| CDTG | ≤ 0.2 |
| TMSP | ≤ 0.2 |
| LRSS | ≤ 0.2 |
| RKVD | ≤ 0.2 |
| HFCR | ≤ 0.2 |
| THCR | ≤ 0.2 |
| TCRH | ≤ 0.2 |
| AYPT | ≤ 0.2 |
| QHMN | ≤ 0.2 |
| IPFF | ≤ 0.2 |
| SSDK | ≤ 0.2 |
| HGCR | ≤ 0.2 |
| PGNK | ≤ 0.2 |
| RNLY | ≤ 0.2 |
| LRLK | ≤ 0.2 |
| RLAH | ≤ 0.2 |
| KIHR | ≤ 0.2 |

| Variant | one-hybrid fitness for binding NBS DNA |
| --- | --- |
| SRTT | ≤ 0.2 |
| TAIK | ≤ 0.2 |
| HPPQ | ≤ 0.2 |
| SGTN | ≤ 0.2 |
| ADNC | ≤ 0.2 |
| RHSG | ≤ 0.2 |
| TWTC | ≤ 0.2 |
| CSGT | ≤ 0.2 |
| TTIT | ≤ 0.2 |
| SCPT | ≤ 0.2 |
| VGMH | ≤ 0.2 |
| YIAS | ≤ 0.2 |
| YACV | ≤ 0.2 |
| QQQM | ≤ 0.2 |
| NLEC | ≤ 0.2 |
| QTVN | ≤ 0.2 |
| RAPQ | ≤ 0.2 |
| FQQS | ≤ 0.2 |
| TWHE | ≤ 0.2 |
| WSTF | ≤ 0.2 |
| QMKH | 0.559 |
| RCEF | ≤ 0.2 |
| LYLG | ≤ 0.2 |
| EIMG | ≤ 0.2 |

| Variant | one-hybrid fitness for binding NBS DNA |
| --- | --- |
| GLLD | ≤ 0.2 |
| QFYS | ≤ 0.2 |
| KGMS | ≤ 0.2 |
| VLHF | ≤ 0.2 |
| HCYR | ≤ 0.2 |
| DGDV | ≤ 0.2 |
| FRTT | ≤ 0.2 |
| QRWP | ≤ 0.2 |
| WDRS | ≤ 0.2 |
| TPYN | ≤ 0.2 |
| PWLI | ≤ 0.2 |
| RITY | ≤ 0.2 |
| MQFT | ≤ 0.2 |
| QSLA | ≤ 0.2 |
| KDSS | ≤ 0.2 |
| HSRF | ≤ 0.2 |
| QDWF | ≤ 0.2 |
| TKTD | ≤ 0.2 |
| RRRL | 0.25 |
| CMWR | ≤ 0.2 |
| GRGD | ≤ 0.2 |
| SQHS | ≤ 0.2 |
| TPLT | ≤ 0.2 |
| DEKG | ≤ 0.2 |

| Variant | one-hybrid fitness for binding NBS DNA |
| --- | --- |
| TKIE | ≤ 0.2 |
| YRIG | ≤ 0.2 |
| EIDS | ≤ 0.2 |
| WLRC | ≤ 0.2 |
| RDDA | ≤ 0.2 |
| MPFT | ≤ 0.2 |
| FFHG | ≤ 0.2 |
| VYGA | ≤ 0.2 |
| KTPR | ≤ 0.2 |
| PHAA | ≤ 0.2 |
| HRFA | ≤ 0.2 |
| HKMR | ≤ 0.2 |
| QHFI | ≤ 0.2 |
| NPNC | ≤ 0.2 |
| SNDR | ≤ 0.2 |
| SLWV | ≤ 0.2 |
| SVVG | ≤ 0.2 |
| RCGY | ≤ 0.2 |
| TDNA | ≤ 0.2 |
| APSS | ≤ 0.2 |
| MTDD | ≤ 0.2 |
| GEPF | ≤ 0.2 |
| ELYR | ≤ 0.2 |
| YCHS | ≤ 0.2 |

| Variant | one-hybrid fitness for binding NBS DNA |
| --- | --- |
| PRYS | ≤ 0.2 |
| SRLV | ≤ 0.2 |
| STQG | ≤ 0.2 |
| INPT | ≤ 0.2 |
| ESIT | ≤ 0.2 |
| KPKR | ≤ 0.2 |
| PHEW | ≤ 0.2 |
| RCKT | 0.653 |
| HQDR | ≤ 0.2 |
| QSAN | ≤ 0.2 |
| GKQT | ≤ 0.2 |
| KMLG | ≤ 0.2 |
| TNHV | ≤ 0.2 |
| SSTH | ≤ 0.2 |
| CYWM | ≤ 0.2 |
| KAPW | ≤ 0.2 |
| DHSV | ≤ 0.2 |
| QTNI | 0.267 |
| HQLS | ≤ 0.2 |
| PPCN | ≤ 0.2 |
| PHAR | ≤ 0.2 |
| ANTK | ≤ 0.2 |
| RTMQ | ≤ 0.2 |
| QAMM | ≤ 0.2 |

| Variant | one-hybrid fitness for binding NBS DNA |
| --- | --- |
| CTSR | ≤ 0.2 |
| YTQS | ≤ 0.2 |
| LDQV | ≤ 0.2 |
| INPR | ≤ 0.2 |
| HKNG | ≤ 0.2 |
| MRKW | ≤ 0.2 |
| KRTT | 0.583 |
| AAKC | ≤ 0.2 |
| ISKV | ≤ 0.2 |
| IKNT | ≤ 0.2 |
| CDTV | ≤ 0.2 |
| LACI | ≤ 0.2 |
| QYNP | ≤ 0.2 |
| IGER | ≤ 0.2 |
| NRHY | ≤ 0.2 |
| HIAE | ≤ 0.2 |
| WLAR | ≤ 0.2 |
| NCWT | ≤ 0.2 |
| CGMC | ≤ 0.2 |
| RTMD | ≤ 0.2 |
| PDFS | ≤ 0.2 |
| AIGN | ≤ 0.2 |
| LAGC | ≤ 0.2 |
| VKQV | ≤ 0.2 |

| Variant | one-hybrid fitness for binding NBS DNA |
| --- | --- |
| VREL | ≤ 0.2 |
| YVDC | ≤ 0.2 |
| NYMR | ≤ 0.2 |
| DCVD | ≤ 0.2 |
| SWVC | ≤ 0.2 |
| FYEL | ≤ 0.2 |
| HSMM | ≤ 0.2 |
| HTVF | ≤ 0.2 |
| GKND | ≤ 0.2 |
| FTSK | ≤ 0.2 |
| LYAS | ≤ 0.2 |
| KNNT | ≤ 0.2 |
| LTLI | ≤ 0.2 |
| VTIS | ≤ 0.2 |
| MHVS | ≤ 0.2 |
| DWMV | ≤ 0.2 |
| DAAC | ≤ 0.2 |
| WQGR | ≤ 0.2 |
| TTWG | ≤ 0.2 |
| ANAI | ≤ 0.2 |
| TGFI | ≤ 0.2 |
| IPAH | ≤ 0.2 |
| EIIC | ≤ 0.2 |
| RRWD | ≤ 0.2 |

| Variant | one-hybrid fitness for binding NBS DNA |
| --- | --- |
| SYHT | ≤ 0.2 |
| YDTS | ≤ 0.2 |
| PLPS | ≤ 0.2 |
| WACG | ≤ 0.2 |
| FMGL | ≤ 0.2 |
| TPLA | ≤ 0.2 |
| KELG | ≤ 0.2 |
| PVTG | ≤ 0.2 |
| MAMG | ≤ 0.2 |
| MDMR | ≤ 0.2 |
| FNPV | ≤ 0.2 |
| SIDW | ≤ 0.2 |
| NRDM | ≤ 0.2 |
| VCVR | ≤ 0.2 |
| QESC | ≤ 0.2 |
| SICR | ≤ 0.2 |
| AQNE | ≤ 0.2 |
| MQIG | ≤ 0.2 |
